Measured values taken from PubChem BioAssay AID1345082 (National Center for Advancing Translational Sciences (NCATS), 2018).
The whole screen tested about 94,000 compounds, of which about 4,000 (4.3%) were called active. The shares of active, inactive and inconclusive entries below differ from those in the screen. Calls come from the whole dose curve; as a rule, active = well fitted inhibition curve with a large enough effect; inconclusive = small, poorly fitted or top-dose-only effect; inactive = no such curve, though single readings can be large or run the other way. Potencies of inconclusive entries are doubtful fits and often do not repeat.
Potency is the fitted concentration of half-maximal effect; tags give direction and shape of the fitted curve.

Assay: Cytotoxic Profiling in NIH 3T3 Cell Line of Diverse Libraries Using Quantitative High-Throughput Screening; note: nearly all actives have a fitted effect of over 55% in size
Conditions: NIH 3T3 viability, CellTiter-Glo ATP luminescence, 48-72 h; series mostly up to 96.7 µM
In short: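 Cytotoxicity is measured as loss of cellular ATP: NIH 3T3 cells (400/well) are exposed to compound for 48 or 72 hr at 37 °C, then CellTiter-Glo luminescence is imaged after 10 min at room temperature.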
For `CN(Cc1ccccc1)C(=O)c1cc(-c2cccc(C(F)(F)F)c2)nc2c1cnn2C`, the Potency was inconclusive: 39.8 µM [inhibitor, partial curve, poor fit]. For `O=C(CCc1c[nH]c2ccccc12)N1CCC2(CC1)CC(Cc1nc(C3CC3)no1)CCO2` (stereo unspecified), the Potency was inconclusive: 50.1 µM [inhibitor, partial curve, poor fit]. For `O=S(=O)(c1ccc2c(c1)OCCO2)N1CC[C@@H]2COCCN(Cc3cccnc3)[C@@H]2C1`, the Potency was inconclusive: 14.1 µM [inhibitor, full curve]. In the case of `Cc1ccc(CN2CCCC23Cc2ccccc2CNC3=O)cc1` (stereo unspecified), the Potency is reported as inconclusive: 89.1 µM [inhibitor, single point]. In the case of `O=C(C1CCCN(Cc2cccc(-c3ccc(F)cc3F)c2)C1)N1CCN(c2ncccn2)CC1` (stereo unspecified), the Potency is reported as inconclusive: 35.5 µM [inhibitor, partial curve, poor fit]. With `COc1ncccc1-c1cnc2n[nH]c(-c3ccccc3C)c2n1` the Potency was inconclusive: 100 µM [inhibitor, partial curve, poor fit]. With `O=C(c1ccc2ncccc2c1)N1CCC2(CC1)Nc1ccccc1NC2=O` the Potency was “inactive”. In the case of `CN(Cc1cccc(C(F)(F)F)c1)Cc1cncs1`, the Potency is reported as “inactive”. With `COc1cc(Cl)ccc1C(=O)NC1CCN(c2cc(-c3ccc(F)cc3)[nH]n2)C1` (stereo unspecified) the Potency was inconclusive: 50.1 µM [inhibitor, partial curve, poor fit]. In the case of `O=C(C[C@H]1NC(=O)c2ccccc2NC1=O)Nc1ccc(Cn2cncn2)cc1`, the Potency is reported as “inactive”. With `Cc1ccc(C(=O)N2CCC3(CC2)N=C(c2ccc(Br)cc2)NO3)cc1` the Potency was “inactive”. With `Cc1ccc(CCC(=O)N2CCC(CO)(CN3CCCC3)CC2)cc1` the Potency was inconclusive: 100 µM [inhibitor, single point]. For `COc1cc(OC)cc(C(=O)Nc2cccc(-c3nnc4n3CCCC4)c2)c1`, the Potency was “inactive”. For `CC(C)CNC(=O)c1cc(-c2cccnc2)nc2c1cnn2C`, the Potency was inconclusive: 89.1 µM [inhibitor, partial curve, poor fit]. With `CCCCn1c(=O)c(C(=O)N2CCC(c3ccccc3)CC2)nc2cccnc21` the Potency was inconclusive: 50.1 µM [inhibitor, partial curve, poor fit]. In the case of `c1csc(CN2Cc3[nH]cnc3C[C@H]2c2nc(-c3ccc4ccccc4c3)no2)c1`, the Potency is reported as inconclusive: 89.1 µM [inhibitor, partial curve, poor fit]. In the case of `COc1ccc(-c2cc(NCCO)nc3[nH]ccc23)cc1C(F)(F)F`, the Potency is reported as active: 39.8 µM. For `O=C(c1nccc2ccccc12)N1CCC2(CC1)CC(Cc1nc(C3CC3)no1)CCO2` (stereo unspecified), the Potency was inconclusive: 70.8 µM [inhibitor, single point]. With `Cc1nn(-c2cccc(Br)c2)c(C)c1[C@@H]1C=C[C@@H](NS(C)(=O)=O)C1` the Potency was inconclusive: 44.7 µM [inhibitor, partial curve, poor fit]. For `O=C(NCc1ccc(F)cc1)C1CN(C2CCCCC2)C(=O)N1` (stereo unspecified), the Potency was “inactive”. With `O=C(C1CCC1)N1CCC2(CC1)CC(Cc1nc(-c3cnccn3)no1)CCO2` (stereo unspecified) the Potency was inconclusive: 50.1 µM [inhibitor, partial curve, poor fit]. In the case of `COc1nc2nc(CCc3ccccc3)n(C)c2cc1-c1ccncc1`, the Potency is reported as inconclusive: 70.8 µM [inhibitor, partial curve, poor fit]. With `CC(=O)N1CCC(C(=O)N2CCCC(c3nc4ccncc4[nH]3)C2)CC1` (stereo unspecified) the Potency was “inactive”. In the case of `COc1cc(-c2cc(-c3ccccc3)nc3c(C)noc23)ccn1`, the Potency is reported as inconclusive: 44.7 µM [inhibitor, partial curve, poor fit]. In the case of `O=C(CCc1ccccc1)N1CCCCCC1c1nnc(-c2ccccc2)o1` (stereo unspecified), the Potency is reported as inconclusive: 50.1 µM [inhibitor, partial curve, poor fit]. In the case of `O=C1CCN(CC(O)C(F)(F)F)c2ccccc2CCN1Cc1ccccc1` (stereo unspecified), the Potency is reported as “inactive”. In the case of `CCOC(=O)[C@@H]1[C@@H](O)C(=O)N(Cc2ccccc2)C12CCN(C(=O)C1CCC1)CC2`, the Potency is reported as inconclusive: 56.2 µM [inhibitor, partial curve, poor fit]. For `Cc1cccc(CC(=O)N2CC(C(=O)NC3CCCCC3)C3(CCOCC3)C2)c1` (stereo unspecified), the Potency was “inactive”. With `Cc1ccc(CNC(=O)c2cc3n(n2)CC(c2ccc(Cl)cc2)OC3)cc1` (stereo unspecified) the Potency was inconclusive: 44.7 µM [inhibitor, partial curve, poor fit]. In the case of `CN(C(=O)CCc1ccsc1)C1CCCN(CCc2ccccc2)C1` (stereo unspecified), the Potency is reported as “inactive”. In the case of `COc1ccc(CC(=O)Nc2ccc([C@H]3OCC(=O)N(Cc4ccc(F)cc4)[C@@H]3CO)cc2)cc1`, the Potency is reported as “inactive”. With `Cc1cccc(-c2cccc(CN3CCC(NC(=O)Cc4ccc(F)cc4)CC3)c2)c1` the Potency was active: 28.2 µM. With `CC(C)CN(Cc1cccnc1)C1CN(C(=O)CC2CCCCC2)C1` the Potency was active: 5.62 µM. For `CN(Cc1csc(-c2ccccc2)n1)C(=O)c1ccc(-n2cnnn2)cc1`, the Potency was inconclusive: 89.1 µM [inhibitor, partial curve, poor fit]. For `CC(=O)N1CCc2nn(CC(=O)Nc3ccc(F)cc3C)c(=O)cc2C1`, the Potency was “inactive”. For `c1ccc(-c2ccc3ncc(Nc4cnccn4)n3n2)cc1`, the Potency was inconclusive: 44.7 µM [inhibitor, full curve]. For `COc1ccc(C(=O)N2CCC3(CC2)NCCc2c3[nH]c3ccc(OC)cc23)c(OC)c1`, the Potency was inconclusive: 39.8 µM [inhibitor, partial curve, poor fit]. In the case of `COc1ccc(-n2c(=O)c3c(n2Cc2ccccc2)CN(C(=O)C2CCC(OC)CC2)CC3)cc1` (stereo unspecified), the Potency is reported as inconclusive: 44.7 µM [inhibitor, partial curve, poor fit]. In the case of `C[S+](=O)([O-])CCn1ncc2cc(OCc3cccc(-c4cccnc4)c3)ccc21`, the Potency is reported as inconclusive: 50.1 µM [inhibitor, partial curve, poor fit]. In the case of `Cc1ccc(CN2CCC(c3nn(C)c(=O)n3Cc3ccccc3)CC2)o1`, the Potency is reported as inconclusive: 50.1 µM [inhibitor, partial curve, poor fit]. For `CCc1cccc(NC(=O)Cn2c(-c3cnccn3)nc(C)c(C)c2=O)c1`, the Potency was “inactive”.
